PubChem BioAssay AID493208 (National Center for Advancing Translational Sciences (NCATS), 2011)
The whole screen tested about 44,000 compounds, of which about 340 (0.77%) were called active. About 5% were inconclusive and are not listed. Calls come from the whole dose curve; as a rule, active = well fitted inhibition curve with a large enough effect; inconclusive = small, poorly fitted or top-dose-only effect; inactive = flat fitted curve, though single readings scatter. The list shows a part of the results.

assay: Acumen qHTS Assay for Inhibitors of the mTORC1 Signaling Pathway in MEF (Tsc2-/-, p53-/-) Cells: Sytravon; details: phospho-rpS6 immunofluorescence/PI, 24 h; series mostly up to 38.3 µM; activity change, negative = inhibition: at the top concentration; note: nearly all actives have a fitted effect of over 50% in size;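 for activity change, negative = inhibition: plate controls were DMSO for no effect and rapamycin for full effect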
In short: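 Tsc2-/-, p53-/- MEFs (empty-vector stable line) in DMEM + 10% FBS were treated with compounds 24 h at 37 degree Celsius, fixed, and immunostained for phospho-rpS6 (Alexa-488) with propidium iodide counterstain. Laser-scanning cytometry gave % positive cells, normalized against 7.5 nM rapamycin and DMSO.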
Potency is the fitted concentration of half-maximal effect.

Activity change, negative = inhibition, inactive:
O=C(Nc1ccc(Cl)cc1C(F)(F)F)c1cc(S(=O)(=O)NCc2ccccc2)ccc1F 6.47%
CCN(CC)C(=O)C1CCN(C(=O)c2cnn(-c3ccccc3)c2-n2cccc2)CC1 -3.52%
CCOC(=O)CSc1nc2ccccc2n2c(C)nnc12 -2.84%
O=C(CSc1nccn1C1CCCC1)Nc1ccccc1 4.07%
COc1ccc(CNC(=O)CCS(=O)(=O)c2ccc3c(c2)CC(C)N3C(=O)C2CC2)cc1 (stereo not drawn) -11.4%
Cc1ccc(Cl)cc1N1CCN(C(=O)c2cn(C)c3ccc(S(=O)(=O)N4CCCC4)cc3c2=O)CC1 -5.34%
CCOc1ccc(-n2ccnc2SCC(=O)Nc2ccc(OC)cc2OC)cc1 -6.9%
CC1=C(C(=O)OC2CCCC2)C(c2cccc(Cl)c2Cl)CC(=O)N1 (stereo not drawn) -22.3%
COc1ccccc1N1CCN(C(=O)c2cc3c(=O)n(Cc4cccnc4)ccc3nc2C)CC1 -0.355%
O=C(Cn1c(=O)n(-c2ccccc2)c(=O)c2c3c(sc21)CCCC3)Nc1ccc(F)cc1 -2.14%
Cc1ccccc1OCC(=O)Nc1nnc(S(=O)(=O)N(C)c2ccccc2)s1 5.68%
CCC1Oc2ccccc2N(CC(=O)NCc2ccc(C)cc2)C1=O (stereo not drawn) 15.8%
CCN1CCN(c2ncc3c(n2)CCN(Cc2ccc(C)s2)C3)CC1 1.65%
COc1ccc(Br)cc1CNC(=O)c1cc2c(=O)n(C)c3ccccc3c2s1 -0.876%
Cc1cccc(CCNC(=O)c2nc(-c3ccc(Cl)cc3)n3c2CCCCC3)c1 -0.0798%
CC(=O)c1ccc(NC(=O)COc2ccccc2-c2nc(C)no2)cc1 -9.71%
CCn1c2c(c(=O)n3ncc(C(=O)Nc4ccc(F)c(Cl)c4)c13)CN(Cc1ccc(OC)cc1)CC2 6.61%
CCOc1ccc(C(=O)OCc2cc(=O)n3nc(C(C)C)sc3n2)cc1 -0.856%
CC(C)CC(=O)N(Cc1ccccc1)S(=O)(=O)c1ccc2c(c1)oc(=O)n2C 1.32%
Nc1nonc1-c1nc2ccccc2n1CC(=O)Nc1ccc(F)cc1 -25.3%
CC(=O)c1cc(-c2ccccc2)n(CC(=O)Nc2ccc(C)cc2C)c1C -0.281%
Cc1ccc(S(=O)(=O)c2cn(CC(=O)Nc3ccccc3)c3cc4c(cc3c2=O)OCO4)cc1 1.12%
Cc1ccc(-c2nc(CS(=O)CC(=O)O)c(C)o2)cc1 (stereo not drawn) 3.04%
CCOc1ccccc1NC(=O)NC(CC)c1c(-n2cccc2)sc2c1CCN(C)C2 (stereo not drawn) 9.05%
CCc1ccc(Nc2nc3ccccc3c3nnc(C)n23)cc1 0.177%
Cc1cccc(N2CCN(C(=O)c3ccc4c(c3)CCN4S(=O)(=O)c3ccccc3)CC2)c1C -12.5%
CCc1ccccc1NC(=O)CSc1nccn1C 6.01%
CCOC(=O)c1cc(OC(=O)c2cc(Cl)ccc2OC)n(-c2ccccc2)n1 1.98%
CCc1ccc(S(=O)(=O)c2nnn3c2nc(NCCC(C)C)c2cc(Cl)ccc23)cc1 -1.36%
CC(=O)c1ccc(OC(=O)c2c(-c3ccccc3Cl)noc2C)cc1 7.54%
COc1ccc2c(c1)c(CC(=O)Nc1cc(C)c(OC)c(C)c1)c(C)n2C(=O)c1ccc(Cl)cc1 -2.68%
CCCN(CCC)S(=O)(=O)c1ccc(C(=O)N2CCn3c4c(c5cc(C)ccc53)CCCC42)cc1 (stereo not drawn) 4.36%
O=C(COc1ccc(Cl)cc1Cl)Nc1ccc(C(=O)OC2CCCCC2)cc1 1.38%
Cn1nc(C(=O)Nc2cccc(C(F)(F)F)c2)c2c1-c1ccccc1S(=O)(=O)C2 -0.644%
CCOc1ccc(NS(=O)(=O)c2ccc3[nH]cc(C(=O)NCCc4ccccc4)c(=O)c3c2)cc1 -2.15%
COc1ccccc1Nc1ncnc2c1nc1n2CCCCC1 -9.88%
Cn1c(SCC(=O)Nc2ccccc2F)nc2c([nH]c3ccccc32)c1=O -11.9%
CCC(=O)N1c2ccccc2CC1C(=O)NCCN1CCN(c2ccccc2F)CC1 (stereo not drawn) 7.92%
Cc1ccc(NC(=O)CSc2nc(=O)n(CCN3CCOCC3)c3c2CCC3)cc1Cl 2.03%
Cc1ccc(Nc2c(-c3cccc(Cl)c3)nc3cccc(C)n23)cc1 1.47%
CC(C)(C)OC(=O)N1CCC(c2c(C(=O)NCc3ccccn3)cnn2-c2ccccc2Cl)CC1 3.74%
Cc1ccc(C)c(N2CCN(S(=O)(=O)c3ccc(C4CCCCC4)cc3)CC2)c1 14.6%
CCCc1noc(-c2ccc(NCc3ccccc3OC)c([N+](=O)[O-])c2)n1 1.2%
Cn1c(=O)nc2n(-c3ccc(Br)cc3)c3cccc(Cl)c3cc-2c1=O -7.2%
CCOc1ccccc1NC(=O)CSc1nc(-c2cccs2)cc(C(F)(F)F)n1 0.0661%
CC(C)c1ccc(NC(=O)CSC2=Nc3ccccc3C3=NC(CC(=O)NCCc4ccccc4)C(=O)N23)cc1 (stereo not drawn) -7.05%
Cc1[nH]c2ccccc2c1SCCNC(=O)c1ccc(F)cc1 10.1%
Cc1cc(-c2ccc(C)c(S(=O)(=O)NCCc3ccccc3)c2)on1 12.7%
O=C(Nc1cc(-c2nc3ccccc3o2)ccc1Cl)c1cc([N+](=O)[O-])ccc1N1CCOCC1 -3.63%
Cn1cc(-c2cc3n(n2)CCC(=O)N3CC(=O)NCc2ccccc2)c2ccccc21 -3.57%
Cc1cccc(Cn2c(SCc3ccc(C(=O)NCc4cccs4)cc3)nc3ccncc32)c1 2.85%
Cc1ccccc1C(=O)Nc1ccc2nc(SCC(=O)N(C)c3ccccc3)sc2c1 0%
CN(C)C1(CNC(=O)COc2cccc(Cl)c2)CCCCC1 -1.12%
O=c1cc(N2CCN(c3ccc(F)cc3)CC2)[nH]c(=O)n1-c1cccc(Br)c1 0.128%
Cc1cccc(C(=O)NCc2cn3cccc(C)c3n2)c1 -6.8%
CC(C)c1ccc(Cc2cnc(NC(=O)c3ccc4c(c3)CC(c3ccccc3)OC4=O)s2)cc1 (stereo not drawn) 2.25%
Cc1ccc(-n2c(=O)c3cccnc3n2CC(=O)Nc2ccccc2C(F)(F)F)cc1C 3.08%
COc1cccc(CNC(=O)C2CCCN(S(=O)(=O)c3cn(C)cn3)C2)c1 (stereo not drawn) 1.58%
COc1ccc(-c2cn3c(n2)sc2cc(C(=O)NC4CCCCC4)ccc23)cc1 5.3%
CC[C@H](C)NC(=O)CCCc1nnc2n(CCC(C)C)c(=O)c3sccc3n12 -3.18%
Cc1ccc(C)c(NC(=O)C(NS(=O)(=O)c2ccc3c(c2)CCC(=O)N3)c2ccccc2)c1 (stereo not drawn) -7.18%
COc1ccccc1OC(C)C(=O)N1CCN(CCc2ccccn2)CC1 (stereo not drawn) -1.25%
CCOC(=O)C1CCCN(C(=O)Cn2nc(C)n3c(cc4c(OC)cccc43)c2=O)C1 (stereo not drawn) 1.48%
O=c1c2ccccc2nc2sc(Nc3cccc(C(F)(F)F)c3)nn12 -0.237%
CCN(CC)c1ccc(C2C(C(N)=O)=C(C)Nc3nc(SCc4ccccc4)nn32)cc1 (stereo not drawn) 7.67%
CSc1cccc(NS(=O)(=O)c2ccc3[nH]cc(C(=O)N4CCCCCC4)c(=O)c3c2)c1 -8.89%
Cc1cccc(Cc2c(C)nc3nc(SCC(=O)NC4CCCCC4)nn3c2C)c1 -4.59%
Fc1ccc(-c2noc3ncnc(NCc4cccc(Cl)c4)c23)cc1 -4.55%
CCOC(=O)c1nnc2c(-c3ccc(F)cc3)c(C)nn2c1N -0.698%
COc1ccccc1CNC(=O)c1cnn(-c2ccc(F)cc2F)c1C1CCN(C(=O)OC(C)(C)C)CC1 2.87%
Cc1ccc(N2CC(NC(=O)Cc3ccc(F)cc3)CC2=O)cc1C (stereo not drawn) -0.0709%
COc1ccc(-c2noc(CCC(=O)Nc3ccccc3Cl)n2)cc1OC -3.02%
COCCN1CN=C(NS(=O)(=O)c2ccc(C)cc2)NC1 -0.546%
COc1ccc(/C=C(\C#N)c2nc(-c3cc4ccccc4oc3=O)cs2)cc1OC -13.1%
CC1CCN(S(=O)(=O)c2ccc3nc(N4CCN(c5ccccc5F)CC4)ccc3c2)CC1 9.8%
COC(=O)c1cccnc1-n1c(=O)c2cccnc2n(CC(=O)Nc2cccc(C(F)(F)F)c2)c1=O 2.99%
CCOc1cc(C2CC(=O)Nc3c2c(C)nn3-c2nc(C)cc(C)n2)ccc1O (stereo not drawn) -11.8%
COc1ccccc1N1CCN(C(=O)c2oc3ccccc3c2N)CC1 2.32%
Cc1ccc(-c2onc(C)c2C)cc1S(=O)(=O)NC1CCC(C)CC1 (stereo not drawn) -24.1%
COc1cc(C)ccc1OCCSc1nnc(-c2cccs2)o1 -7.87%
O=C(/C=C/c1ccccc1)Nc1cc(-c2nc3ccccc3o2)ccc1Cl 6.81%
FC(F)(F)c1cccc(N2CCN(Cc3nnc(-c4ccccc4)o3)CC2)c1 3.23%
CCOc1ccccc1CNC(=O)c1ccc(Cn2c(=O)c3cccn3c3cccnc32)cc1 5.08%
CC(C)c1ccc(-c2noc(SCC(=O)N3CCCCC3)n2)cc1 3.16%
CCCN(CCC)CCCNC(=O)c1nn(C)c2c1CS(=O)(=O)c1ccccc1-2 -2.54%
CC(=O)Nc1nonc1-c1nnc(SCc2cccc(Br)c2)n1C -0.342%
CCOc1cccc2sc(NC(=O)c3ccc(S(=O)(=O)N4CCc5ccccc54)cc3)nc12 1.37%
CCc1cccc(C)c1NC(=O)C(CC)Sc1nc2ccncc2[nH]1 (stereo not drawn) -5.64%
CCCCc1nn2c(=O)cc(COC(=O)c3ccc(NC(=O)c4cccc(OC)c4)cc3)nc2s1 6.89%
CCCN1CCN(CC2=C(C(=O)OCC)C(c3cccc(OC)c3OC)NC(=O)N2)CC1 (stereo not drawn) 2.8%
COc1ccc(CN2CCN(c3ncnc4sc5c(c34)CCCC5)CC2)cc1F -5.84%
Cc1ccc(NC(=O)N2CCc3c(sc4c3CCCC4)C2c2ccccc2)cc1F (stereo not drawn) 11.7%
CSc1ncc(C(=O)NCc2ccccc2Cl)c(C(F)(F)F)n1 -9.63%
CCOC(=O)CSc1nc2cc3c(cc2c(=O)n1CCCCCC(=O)NCc1ccc2c(c1)OCO2)OCO3 -13%
CCCCN(C)C(=O)c1ccc2c(c1)N(Cc1cccc(Cl)c1)C(=O)c1ccccc1S2=O (stereo not drawn) -2.15%
Cc1cc(C)cc(NC(=O)N2CCN(C)c3ncccc32)c1 -11.5%
Cc1ccc2c(CC(=O)Nc3ccc(S(=O)(=O)Nc4nc(C)cc(C)n4)cc3)coc2c1 -3.09%

Potency, active:
COc1ccc(S(=O)(=O)N(C(=O)c2ccncc2)c2ccc3oc(C)c(C(C)=O)c3c2)cc1 18.5 µM
